Two molecules from publication PMC10017364 can be followed below.

No constants are given. Whether binding was seen depends on the method and setting. In cells and extracts the contact can be indirect.

For experiment [1], the target named is HA- and FLAG-tagged EGFR (HA-EGFR-FLAG) (human) (UniProt P00533). The experiment in a line: co-IP; lysates of HEK293T cells expressing FLAG-tagged proteins incubated with anti-FLAG M2 agarose beads overnight at 4 °C; eluted with FLAG peptides; bound proteins by immunoblotting. For orientation: A western blot detects proteins with antibodies after separation by electrophoresis.

For experiment [2], the target named is EGFR bearing an EGFP and a biotin acceptor peptide (Bio tag) at its C-terminus (EGFR-EGFP-Bio), full length (human) (UniProt P00533). The experiment can be described thus: pull-down; streptavidin pull-down: lysates of HEK293T cells coexpressing HA-BirA and the EGFP-Bio-tagged EGFR construct incubated with Dynabeads M-280 Streptavidin overnight at 4 °C; lysis buffer 110 mM potassium acetate, 20 mM Hepes pH 7.2, 2 mM magnesium acetate, 0.5% Triton X-100, 1 mM DTT; bound proteins by immunoblotting.

B1: ERGIC53 (protein, UniProt P49257 31-510)
chain: DGVGGDPAVALPHRRFEYKYSFKGPHLVQSDGTVPFWAHAGNAIPSSDQIRVAPSLKSQRGSVWTKTKAAFENWEVEVTFRVTGRGRIGADGLAIWYAENQGLEGPVFGSADLWNGVGIFFDSFDNDGKKNNPAIVIIGNNGQIHYDHQNDGASQALASCQRDFRNKPYPVRAKITYYQNTLTVMINNGFTPDKNDYEFCAKVENMIIPAQGHFGISAATGGLADDHDVLSFLTFQLTEPGKEPPTPDKEISEKEKEKYQEEFEHFQQELDKKKEEFQKGHPDLQGQPAEEIFESVGDRELRQVFEGQNRIHLEIKQLNRQLDMILDEQRRYVSSLTEEISKRGAGMPGQHGQITQQELDTVVKTQHEILRQVNEMKNSMSETVRLVSGMQHPGSAGGVYETTQHFIDIKEHLHIVKRDIDNLVQRNMPSNEKPKCPELPPFPSCLSTVHFIIFVVVQTVLFIGYIMYRSQQEAAAKKFF
As to B1, the binding result in experiment [1] is “no binding”.

B2: delta subunit of the adaptor complex-3 (AP3δ1) (protein, UniProt O14617 1-1153)
chain: MALKMVKGSIDRMFDKNLQDLVRGIRNHKEDEAKYISQCIDEIKQELKQDNIAVKANAVCKLTYLQMLGYDISWAAFNIIEVMSASKFTFKRIGYLAASQSFHEGTDVIMLTTNQIRKDLSSPSQYDTGVALTGLSCFVTPDLARDLANDIMTLMSHTKPYIRKKAVLIMYKVFLKYPESLRPAFPRLKEKLEDPDPGVQSAAVNVICELARRNPKNYLSLAPLFFKLMTSSTNNWVLIKIIKLFGALTPLEPRLGKKLIEPLTNLIHSTSAMSLLYECVNTVIAVLISLSSGMPNHSASIQLCVQKLRILIEDSDQNLKYLGLLAMSKILKTHPKSVQSHKDLILQCLDDKDESIRLRALDLLYGMVSKKNLMEIVKKLMTHVDKAEGTTYRDELLTKIIDICSQSNYQYITNFEWYISILVELTRLEGTRHGHLIAAQMLDVAIRVKAIRKFAVSQMSALLDSAHLLASSTQRNGICEVLYAAAWICGEFSEHLQEPHHTLEAMLRPRVTTLPGHIQAVYVQNVVKLYASILQQKEQAGEAEGAQAVTQLMVDRLPQFVQSADLEVQERASCILQLVKHIQKLQAKDVPVAEEVSALFAGELNPVAPKAQKKVPVPEGLDLDAWINEPLSDSESEDERPRAVFHEEEQRRPKHRPSEADEEELARRREARKQEQANNPFYIKSSPSPQKRYQDTPGVEHIPVVQIDLSVPLKVPGLPMSDQYVKLEEERRHRQKLEKDKRRKKRKEKEKKGKRRHSSLPTESDEDIAPAQQVDIVTEEMPENALPSDEDDKDPNDPYRALDIDLDKPLADSEKLPIQKHRNTETSKSPEKDVPMVEKKSKKPKKKEKKHKEKERDKEKKKEKEKKKSPKPKKKKHRKEKEERTKGKKKSKKQPPGSEEAAGEPVQNGAPEEEQLPPESSYSLLAENSYVKMTCDIRGSLQEDSQVTVAIVLENRSSSILKGMELSVLDSLNARMARPQGSSVHDGVPVPFQLPPGVSNEAQYVFTIQSIVMAQKLKGTLSFIAKNDEGATHEKLDFRLHFSCSSYLITTPCYSDAFAKLLESGDLSMSSIKVDGIRMSFQNLLAKICFHHHFSVVERVDSCASMYSRSIQGHHVCLLVKKGENSVSVDGKCSDSTLLSNLLEEMKATLAKC
In the case of B2, in experiment [2], the binding result is “no binding”.
